Laboratory results as given in PubChem BioAssay AID1346428 (National Center for Advancing Translational Sciences (NCATS), 2018).
Among all 48,000 compounds or so, about 1,200 (2.5%) were called active. Not shown: some 2% with an inconclusive outcome.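 Rule for the calls: active = activation of at least 60% and not above a set upper limit (about 1 call in 100 departs from these limits); inconclusive = activation of 40% to 60%, or above that upper limit; inactive = activation under 40%.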 Some of the results follow.

These molecules were tested against Probable G-protein coupled receptor 32 (Homo sapiens) (UniProt O75388) (assay: qHTS for Agonists of Human Resolvin D1 Receptor DRV1). Settings: CHO-K1 GPR32 beta-arrestin PathHunter luminescence, 90 min; at 76.9 µM; stronger effect = higher value; zero percent set by DMSO-only wells.
Sequence of UniProt O75388 (O75388 whole entry, looked up, the tested form may be a part): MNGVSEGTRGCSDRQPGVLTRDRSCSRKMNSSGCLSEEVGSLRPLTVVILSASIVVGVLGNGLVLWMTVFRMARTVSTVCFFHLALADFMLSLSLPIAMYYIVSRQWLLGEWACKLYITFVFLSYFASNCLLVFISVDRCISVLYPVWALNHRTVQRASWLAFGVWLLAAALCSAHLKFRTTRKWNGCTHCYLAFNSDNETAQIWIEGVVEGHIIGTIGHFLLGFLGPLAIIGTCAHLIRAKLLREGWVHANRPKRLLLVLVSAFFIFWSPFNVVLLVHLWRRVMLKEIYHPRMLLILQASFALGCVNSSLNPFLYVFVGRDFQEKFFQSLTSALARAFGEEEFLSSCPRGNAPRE
In short: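 PathHunter enzyme-fragment complementation, CHO-K1 GPR32 stable line; 2,500 cells/well, overnight attach; cpd 90 min 37 °C 5% CO2; detection reagent 1 h RT; chemiluminescence. DMSO = EC0.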

activation, active:
CC(=O)Nc1ccc(-c2nnc(SCC(=O)c3ccc([N+](=O)[O-])cc3)o2)cc1 64%

activation, inactive:
COc1ccc(-c2ccc3cc(C(=O)O)ccc3c2)cc1C12CC3CC(CC(C3)C1)C2 -12.8%
CCc1ccccc1NC(=O)CSc1nc2c(oc3ccccc32)c(=O)n1-c1ccccc1F -15.9%
Cc1cccc(NC(=O)Cn2c(C(F)(F)F)nc3ccccc32)c1C -6.91%
CCc1ccccc1NC(=O)c1nc(-c2ccncc2)no1 -2.46%
O=C(NCCc1csc2nc(-c3ccc(F)cc3)nn12)c1ccco1 3.65%
COc1ccc(C)cc1NC(=O)Cn1cc(S(=O)(=O)Cc2ccccc2Cl)c2ccccc21 -9%
CCOc1cc2c(cc1OCC)C(c1c(F)cccc1Cl)CC(=O)N2 (configuration not stated) 49.2%
CCOc1ccccc1CNS(=O)(=O)c1csc(C(N)=O)c1 -7.22%
COC(=O)c1cc(NC(=O)CCc2c(C)nc3cc(-c4ccccc4)nn3c2C)cc(C(=O)OC)c1 -1.21%
CC1CCN(S(=O)(=O)c2cc(C(=O)Nc3ccc(Br)cc3F)n(C)c2)CC1 -5.25%
Cc1ccc(-c2cc(C(=O)N3CCN(c4ccccc4)CC3)c3ccccc3n2)cc1C -26.7%
COc1cc(C2C(C(=O)Nc3ccccc3)=C(C)Nc3nc(SCc4ccccc4F)nn32)cc(OC)c1OC (configuration not stated) 17.6%
Cc1sc2c(c1C)c(=O)n(-c1ccc(Cl)cc1)c(=O)n2Cc1c(F)cccc1Cl -3.13%
CCOC(=O)c1c(S(=O)(=O)N2CCC(C(=O)N3CCN(c4cc(C)ccc4C)CC3)CC2)c(C)n(C)c1C -32.8%
O=C(NC1CCCCC1)c1ccc(CSc2nc3cccnc3n2Cc2ccccc2F)cc1 -0.451%
Cc1ccc(Cn2c(CCCNC(=O)C3CCCCC3)nc3ccccc32)cc1 11%
CC(C)CCNC(=O)c1ccc2c(c1)N(Cc1ccccc1F)C(=O)c1ccccc1S2=O (configuration not stated) -29.7%
COc1ccccc1OCC(=O)NCC1(N(C)C)CCCCC1 -6.19%
Cc1ccc(N2CC(NC(=O)C(=O)c3c[nH]c4ccccc34)CC2=O)cc1 (configuration not stated) -3.45%
CCN1CCCC1CNC(=O)c1cc(S(N)(=O)=O)ccc1OC (configuration not stated) -8.58%
Oc1ccc(NCc2ccc(OCc3ccccc3Cl)cc2)cc1 -57%
O=C(CSc1nc(=O)n(Cc2cccnc2)c2c1CCC2)Nc1ccc(F)cc1F 19%
Cc1ccc(Cc2nc3ccccc3nc2SCC(=O)N2CCCCC2C)cc1 (configuration not stated) -15.9%
COC(=O)c1cccc(NC(=O)Nc2cc(C(=O)NCc3cccc(F)c3)ccc2N2CCCC2)c1 -23.2%
N#C/C(=C\c1c(Oc2ccc(Br)cc2)nc2ccccn2c1=O)c1nc2ccccc2s1 29.3%
CCCCN1CCc2nc(N3CCN(C)CC3)ncc2C1 -16.7%
COc1ccc(N2CCN(C(=O)CS(=O)(=O)c3cccc4nsnc34)CC2)cc1 30.7%
CC(=O)N1CCc2cc(Br)cc(S(=O)(=O)N3CCN(c4cccc(C)c4)C(C)C3)c21 (configuration not stated) 9.36%
COc1cccc(N2CCN(S(=O)(=O)c3ccc4c(c3)CCCN4C(C)=O)CC2)c1 -5.15%
CCOC(=O)c1c(NC(=O)c2cc(=O)c3ccc(C)cc3o2)sc(C)c1C 5.04%
COc1ccc(Cl)cc1NC(=O)c1cc(C)nn1-c1ccccc1 -22.8%
COc1ccccc1N1CCN(C(=O)c2cn(C)c3ccc(S(=O)(=O)N4CCOCC4)cc3c2=O)CC1 -4.92%
CN(C)c1ccc(CNC(=O)CCCn2ccc3cc(S(=O)(=O)N4CCCC4)ccc32)cc1 -19.9%
COc1ccc(CCN2CCC(CNC(=O)c3cnn(-c4ccccc4)c3C3CCN(C(=O)OC(C)(C)C)CC3)CC2)cc1 -11.1%
Cc1nn(C(C)C(=O)NC2CCC(C)CC2)c(=O)c2cc3sccc3n12 (configuration not stated) -13.9%
Cc1cc(=O)[nH]c2nnc(SCc3ccc(Cl)cc3)n12 21.4%
COC(=O)C1=C(c2ccccc2)c2ccccc2S(=O)(=O)N1CC(=O)Nc1ccc(OC)cc1OC -31.6%
CCOc1ccc(NC(=O)CN2C(C(=O)OC)=C(c3ccccc3)c3cc(Cl)ccc3S2(=O)=O)cc1 -17.7%
COc1ccccc1-c1cc(NC(=O)COc2ccc(C)c(C)c2)n(-c2ccccc2)n1 8.79%
COc1ccccc1NC(=O)C1CCN(S(=O)(=O)c2cn(C)cn2)CC1 -20.3%
Cc1ccc(CNC(=O)CN2CCN(Cc3ccc(F)cc3)C2=O)cc1 3.85%
COc1ccc(NC(=O)c2c(NCc3cccc(F)c3)sc3c2CCCC3)c(OC)c1 -14.3%
O=C(NCc1ccccc1)C1CCN(S(=O)(=O)c2ccc3[nH]c(=O)ccc3c2)CC1 3.29%
Cc1cccc(N(C)S(=O)(=O)c2c(C(=O)N3CCCCCC3)c(C)n(C)c2C)c1 -16%
O=C(c1ccc(OCCCc2cnc[nH]2)cc1)C1CC1 3%
CCOc1ccc(CCNC(=O)c2cnc3sc(N4CCCCCC4)nn3c2=O)cc1 -3.47%
COc1ccc(-c2cc(C(F)(F)F)nc(SCC(=O)NCc3ccc(Cl)cc3)n2)cc1 -14.6%
CC(C)OCc1cc(CN2CCN(c3ccccc3)CC2)c(O)c2ncccc12 -7.62%
Cc1cccc2c1-c1sc(C(=O)N3CCN(c4cccc(Cl)c4)CC3)cc1CO2 -20.3%
COc1ccc(OC)c(NC(=O)CN2CCCN(Cc3cc(C)ccc3C)S2(=O)=O)c1 -16.7%
O=C(CSc1nccn1Cc1ccc(Cl)cc1)NCc1ccccc1 -2.72%
COc1ccccc1CNC(=O)C(CC(C)C)N1Cc2ccccc2C1=O (configuration not stated) -7.46%
O=C(CN1C(=O)C2(SCC(=O)N2c2ccc(F)c(F)c2)c2ccccc21)Nc1ccccc1F (configuration not stated) -14.3%
CC1=C(C(=O)Nc2ccc(F)cc2F)C2(CCCCCC2)OC1=O -21.6%
Cc1cccc(CC(=O)NCCc2csc(-c3ccc(C(F)(F)F)cc3)n2)c1 -10.1%
Cc1ccc(C)c(C(=O)COC(=O)CCCC(=O)Nc2cc(C(F)(F)F)ccc2Cl)c1 -2.68%
Cc1cc(C)c(NC(=O)CSc2nc(-c3ccc(F)cc3)nc3c2Cc2c(CO)cnc(C)c2O3)c(C)c1 0.855%
CCCCCCCCCCCC(=O)[O][Sn]([CH2]CCC)([CH2]CCC)[O]C(=O)CCCCCCCCCCC 28.9%
COc1ccc(S(=O)(=O)N(CC(=O)Nc2cccc(C)c2)c2ccc(C)cc2)cc1OC -2.74%
CCOc1ccc(CCNC(=O)c2[nH]c3cc(OC)ccc3c2Sc2ccccc2)cc1OCC -26.9%
CC(C)CN(CCCNC(=O)CN1N=C(c2ccccc2)CCC1=O)CC(C)C -15.1%
O=C(Cn1ncc2c3ccccc3n(Cc3ccccc3F)c2c1=O)N1CCCCC1 -9.45%
CCCCSCCCNC(=O)C1CCN(Cc2nc(-c3cccc(Br)c3)oc2C)CC1 26%
COc1ccccc1CNC(=O)c1ccc(N2CCCC2)c(NC(=O)NCc2ccc(F)cc2)c1 -19.1%
CCOC(=O)C1=C(CN(CC)Cc2ccccc2)NC(=O)NC1c1ccc(OC(C)C)cc1 (configuration not stated) -13.3%
COc1ccc(N2CCN(c3ccc(-c4nc(-c5cccc(C)c5)no4)cc3[N+](=O)[O-])CC2)cc1 10.1%
O=C(NCCC1=CCCCC1)c1ccc2c(c1)N(Cc1cccc(Cl)c1)C(=O)c1ccccc1S2(=O)=O -22.9%
CC(=O)c1cc2c(cc1NC(=O)c1cnn(-c3ccc(C)cc3)c1-n1cccc1)OCO2 -6.05%
CCOc1ccc(S(=O)(=O)c2cn(Cc3ccc(OC)cc3)c3ccc(F)cc3c2=O)cc1 -5.09%
CCOc1ccc(C(=O)N2CCN(CCc3ccccn3)CC2)cc1 5.44%
Cc1nn(-c2ccc(N3CCCC3)nn2)c(C)c1CCC(=O)NCc1ccc(OC(C)C)cc1 -12.3%
Cn1c(=O)[nH]c(=O)c2c1nc1n2CCN1c1ccccc1 -10.4%
CCOc1ccc(NC(=O)Cn2c(=O)cc(C)c3c(C)nn(-c4cccc(Cl)c4C)c32)cc1 0.235%
CCOC(=O)CC(NC(=O)CCc1c(C)nc2ncnn2c1C)c1ccc(OC(C)C)cc1 (configuration not stated) -1.26%
CC(C)c1ccc(NC(=O)CCNS(=O)(=O)c2ccc3c(c2)CCCC(=O)N3)cc1 2.6%
CCOC(=O)c1ccccc1NC(=O)CSc1cn(CC(=O)N2CCOCC2)c2ccccc12 -11.1%
COc1ccc(CNC(=O)C2CCC(CNS(=O)(=O)c3cccs3)CC2)cc1 (configuration not stated) 38.5%
Cc1ccccc1CSc1nc2cccnc2n1Cc1ccc(C(=O)NC2CC2)cc1 -8.62%
CCOc1ccc(Nc2nc(C)c(NC(=O)c3cccc(OC)c3)c(Nc3ccc(OCC)cc3)n2)cc1 -8.06%
Cc1ccc(-c2nc(S(=O)(=O)c3ccc(C)cc3)c(N3CCCCCC3)o2)cc1 -8.72%
Cc1ccc(N2CCN(S(=O)(=O)c3nnc(NC(=O)c4ccc(C(C)C)cc4)s3)CC2)cc1 9.59%
